The supplement of paper PMC11741623
The other results are listed elsewhere or left out. Interaction screen of human proteins with wild-type SARS-CoV-2 proteins by split-DHFR complementation in yeast, 1 µg/mL methotrexate. Value = fitness of the pair (three or more lineages) minus that of the viral protein without a human partner, on a scale set by negative (0) and fused positive (1) controls, mean of up to three cultures; higher = more likely to interact. Active = false discovery rate below 0.05 (one-sided t-test) in at least one culture. Nearly all pairs are not hits, and differences among them are mostly noise (correlation between cultures about 0.3); most hits were seen in one culture only. Human sequences are the Swiss-Prot entries looked up by gene name; the clone may be another isoform. NSP2 values were corrected by the authors for a growth advantage. Listed are human proteins with a hit and a random twelfth of the others.

B1: IGHM, P01871 (protein)
chain: GSASAPTLFPLVSCENSPSDTSSVAVGCLAQDFLPDSITFSWKYKNNSDISSTRGFPSVLRGGKYAATSQVLLPSKDVMQGTDEHVVCKVQHPNGNKEKNVPLPVIAELPPKVSVFVPPRDGFFGNPRKSKLICQATGFSPRQIQVSWLREGKQVGSGVTTDQVQAEAKESGPTTYKVTSTLTIKESDWLGQSMFTCRVDHRGLTFQQNASSMCVPDQDTAIRVFAIPPSFASIFLTKSTKLTCLVTDLTTYDSVTISWTRQNGEAVKTHTNISESHPNATFSAVGEASICEDDWNSGERFTCTVTHTDLPSPLKQTISRPKGVALHRPDVYLLPPAREQLNLRESATITCLVTGFSPADVFVQWMQRGQPLSPEKYVTSAPMPEPQAPGRYFAHSILTVSEEEWNTGETYTCVVAHEALPNRVTERTVDKSTEGEVSADEEGFENLWATASTFIVLFLLSLFYSTTVTLFKVK
B2: KLHL17, Q6TDP4 (protein)
chain: MQPRSERPAGRTQSPEHGSPGPGPEAPPPPPPQPPAPEAERTRPRQARPAAPMEGAVQLLSREGHSVAHNSKRHYHDAFVAMSRMRQRGLLCDIVLHVAAKEIRAHKVVLASCSPYFHAMFTNEMSESRQTHVTLHDIDPQALDQLVQFAYTAEIVVGEGNVQTLLPAASLLQLNGVRDACCKFLLSQLDPSNCLGIRGFADAHSCSDLLKAAHRYVLQHFVDVAKTEEFMLLPLKQVLELVSSDSLNVPSEEEVYRAVLSWVKHDVDARRQHVPRLMKCVRLPLLSRDFLLGHVDAESLVRHHPDCKDLLIEALKFHLLPEQRGVLGTSRTRPRRCEGAGPVLFAVGGGSLFAIHGDCEAYDTRTDRWHVVASMSTRRARVGVAAVGNRLYAVGGYDGTSDLATVESYDPVTNTWQPEVSMGTRRSCLGVAALHGLLYSAGGYDGASCLNSAERYDPLTGTWTSVAAMSTRRRYVRVATLDGNLYAVGGYDSSSHLATVEKYEPQVNVWSPVASMLSRRSSAGVAVLEGALYVAGGNDGTSCLNSVERYSPKAGAWESVAPMNIRRSTHDLVAMDGWLYAVGGNDGSSSLNSIEKYNPRTNKWVAASCMFTRRSSVGVAVLELLNFPPPSSPTLSVSSTSL
B3: MLLT11, Q13015 (protein)
chain: MRDPVSSQYSSFLFWRMPIPELDLSELEGLGLSDTATYKVKDSSVGKMIGQATAADQEKNPEGDGLLEYSTFNFWRAPIASIHSFELDLL
B4: NBPF3, Q9H094 (protein)
chain: MPLTPTVQGFQWTLRGPDVETSPFGAPRAASHGVGRHQELRDPTVPGPTSSATNVSMVVSAGPWSGEKAEMNILEINKKSRPQLAENKQQFRNLKQKCLVTQVAYFLANRQNNYDYEDCKDLIKSMLRDERLLTEEKLAEELGQAEELRQYKVLVHSQERELTQLREKLQEGRDASRSLNQHLQALLTPDEPDNSQGRDLREQLAEGCRLAQHLVQKLSPENDDDEDEDVKVEEAEKVQELYAPREVQKAEEKEVPEDSLEECAITCSNSHHPCESNQPYGNTRITFEEDQVDSTLIDSSSHDEWLDAVCIIPENESDHEQEEEKGPVSPRNLQESEEEEAPQESWDEGDWTLSIPPDMSASYQSDRSTFHSVEEQQVGLALDIGRHWCDQVKKEDQEATSPRLSRELLDEKEPEVLQDSLDRFYSTPFEYLELPDLCQPYRSDFYSLQEQHLGLALDLDRMKKDQEEEEDQGPPCPRLSRELPEVVEPEDLQDSLDRWYSTPFSYPELPDSCQPYGSCFYSLEEEHVGFSLDVDEIEKYQEGEEDQKPPCPRLNEVLMEAEEPEVLQDSLDRCYSTTSTYFQLHASFQQYRSAFYSFEEQDVSLALDVDNRFFTLTVIRHHLAFQMGVIFPH

What follows are binders tested against SARS-CoV-2 E (assay: yeast fitness gain over the viral ORF with no human partner (scaled fitness); higher = more likely to interact).
Description: (§1)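 Split mouse DHFR complementation in pooled diploid yeast: human ORFeome clones carry one fragment and viral ORFs the other; barcoded lineages compete in 1 µg/mL methotrexate and fitness is read by barcode sequencing in up to three cultures.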

Row | Binder | yeast fitness gain
1 | B1 | inactive: 0.0894
2 | B2 | inactive: 0.0302
3 | B3 | inactive: 0.0387
4 | B4 | inactive: 0.0426

The binders below were run against SARS-CoV-2 M in the same assay as above.
Description: as §1

Row | Binder | yeast fitness gain
5 | B1 | inactive: -0.0296
6 | B2 | inactive: -0.0528
7 | B3 | inactive: -0.0318
8 | B4 | inactive: 0.0482

Each binder was assayed against SARS-CoV-2 N in the same assay as above.
Description: as §1

Row | Binder | yeast fitness gain
9 | B1 | inactive: 0.0817
10 | B4 | inactive: 0.067

Each binder was assayed against SARS-CoV-2 NSP1 in the same assay as above.
Description: as §1

Row | Binder | yeast fitness gain
11 | B1 | inactive: -0.0117
12 | B2 | inactive: -0.0426
13 | B3 | inactive: 0.00996
14 | B4 | inactive: -0.019

These binders were tested against SARS-CoV-2 NSP10 in the same assay as above.
Description: as §1

Row | Binder | yeast fitness gain
15 | B1 | inactive: -0.00524
16 | B2 | inactive: -0.0035
17 | B3 | inactive: -0.00237
18 | B4 | inactive: 0.00243

These binders were tested against SARS-CoV-2 NSP12 in the same assay as above.
Description: as §1

Row | Binder | yeast fitness gain
19 | B1 | inactive: 0.0283
20 | B2 | inactive: 0.0445
21 | B3 | inactive: 0.0725
22 | B4 | inactive: -0.0214

What follows are binders tested against SARS-CoV-2 NSP13 in the same assay as above.
Description: as §1

Row | Binder | yeast fitness gain
23 | B1 | inactive: 0.0384
24 | B2 | inactive: -0.0244
25 | B3 | inactive: 0.035
26 | B4 | inactive: -0.0158

The binders below were run against SARS-CoV-2 NSP14 in the same assay as above.
Description: as §1

Row | Binder | yeast fitness gain
27 | B1 | inactive: 0.079
28 | B2 | inactive: -0.099
29 | B3 | inactive: 0.11

What follows are binders tested against SARS-CoV-2 NSP15 in the same assay as above.
Description: as §1

Row | Binder | yeast fitness gain
30 | B1 | inactive: -0.0293
31 | B2 | inactive: -0.0451
32 | B3 | inactive: 0.0396
33 | B4 | inactive: 0.00138

Each binder was assayed against SARS-CoV-2 NSP16 in the same assay as above.
Description: as §1

Row | Binder | yeast fitness gain
34 | B1 | inactive: 0.0306
35 | B2 | inactive: -0.0017
36 | B3 | inactive: 0.0577
37 | B4 | inactive: 0.0283

These binders were tested against SARS-CoV-2 NSP2 in the same assay as above.
Description: as §1

Row | Binder | yeast fitness gain
38 | B1 | inactive: -0.0228
39 | B2 | inactive: -0.143
40 | B3 | inactive: -0.15
41 | B4 | inactive: -0.105

These binders were tested against SARS-CoV-2 NSP4 in the same assay as above.
Description: as §1

Row | Binder | yeast fitness gain
42 | B1 | active: 0.392
43 | B2 | inactive: 0.0991
44 | B3 | inactive: 0.00177
45 | B4 | inactive: 0.0677

Each binder was assayed against SARS-CoV-2 NSP5 in the same assay as above.
Description: as §1

Row | Binder | yeast fitness gain
46 | B1 | inactive: -0.0543
47 | B2 | inactive: -0.0154
48 | B3 | inactive: -0.00897
49 | B4 | inactive: 0.0338

These binders were tested against SARS-CoV-2 NSP6 in the same assay as above.
Description: as §1

Row | Binder | yeast fitness gain
50 | B1 | inactive: 0.14
51 | B2 | inactive: 0.0189
52 | B3 | inactive: -0.00789
53 | B4 | inactive: 0.0118

These binders were tested against SARS-CoV-2 NSP7 in the same assay as above.
Description: as §1

Row | Binder | yeast fitness gain
54 | B1 | inactive: -0.152
55 | B2 | inactive: 0.0601
56 | B3 | inactive: 0.0119
57 | B4 | inactive: -0.0305

The binders below were run against SARS-CoV-2 NSP8 in the same assay as above.
Description: as §1

Row | Binder | yeast fitness gain
58 | B1 | inactive: -0.0704
59 | B2 | inactive: 0.025
60 | B3 | inactive: -0.0316
61 | B4 | inactive: 0.0661

What follows are binders tested against SARS-CoV-2 NSP9 in the same assay as above.
Description: as §1

Row | Binder | yeast fitness gain
62 | B1 | inactive: 0.0639
63 | B2 | inactive: 0.017
64 | B3 | inactive: 0.0145
65 | B4 | inactive: 0.0888

These binders were tested against SARS-CoV-2 ORF10 in the same assay as above.
Description: as §1

Row | Binder | yeast fitness gain
66 | B1 | inactive: 0.0432
67 | B2 | inactive: 0.0239
68 | B3 | inactive: -0.073
69 | B4 | inactive: -0.103

The binders below were run against SARS-CoV-2 ORF3A in the same assay as above.
Description: as §1

Row | Binder | yeast fitness gain
70 | B1 | inactive: -0.0175
71 | B2 | inactive: 0.0254
72 | B3 | inactive: -0.0604
73 | B4 | inactive: 0.0188

The binders below were run against SARS-CoV-2 ORF3B in the same assay as above.
Description: as §1

Row | Binder | yeast fitness gain
74 | B1 | inactive: -0.0152
75 | B2 | inactive: -0.0471
76 | B3 | inactive: -0.0237
77 | B4 | inactive: 0.0221

The binders below were run against SARS-CoV-2 ORF6 in the same assay as above.
Description: as §1

Row | Binder | yeast fitness gain
78 | B1 | inactive: -0.0282
79 | B2 | inactive: 0.0273
80 | B3 | inactive: 0.0227
81 | B4 | inactive: 0.00135

What follows are binders tested against SARS-CoV-2 ORF7A in the same assay as above.
Description: as §1

Row | Binder | yeast fitness gain
82 | B1 | inactive: 0.282
83 | B2 | inactive: -0.162
84 | B3 | inactive: 0.0413
85 | B4 | inactive: -0.0212

These binders were tested against SARS-CoV-2 ORF7B in the same assay as above.
Description: as §1

Row | Binder | yeast fitness gain
86 | B1 | inactive: 0.32
87 | B2 | inactive: 0.00319
88 | B3 | inactive: 0.00621
89 | B4 | inactive: 0.0446

Each binder was assayed against SARS-CoV-2 ORF8 in the same assay as above.
Description: as §1

Row | Binder | yeast fitness gain
90 | B1 | inactive: 0.0141
91 | B2 | inactive: 0.00042
92 | B3 | inactive: 0.055
93 | B4 | inactive: -0.00358

What follows are binders tested against SARS-CoV-2 ORF9B in the same assay as above.
Description: as §1

Row | Binder | yeast fitness gain
94 | B1 | inactive: 0.0601
95 | B2 | inactive: 0.0137
96 | B3 | inactive: 0.0452
97 | B4 | inactive: -0.0343

The binders below were run against SARS-CoV-2 ORF9Bwu (the 73-codon ORF) in the same assay as above.
Description: as §1

Row | Binder | yeast fitness gain
98 | B1 | inactive: 0.0148
99 | B2 | inactive: 0.0519
100 | B3 | inactive: 0.0112
101 | B4 | inactive: -0.0333

Each binder was assayed against SARS-CoV-2 S in the same assay as above.
Description: as §1

Row | Binder | yeast fitness gain
102 | B1 | inactive: 0.0866
103 | B2 | inactive: 0.00963
104 | B3 | inactive: -0.0614
105 | B4 | inactive: 0.0347
